43 compounds from article PMC4336329 (PLoS ONE, 2015) can be followed below.

Out of some 310,000 compounds screened, about 14,000 (4.5%) showed an effect of 50% or more. Effects have a minus sign here. This is one part of the list.
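Note: peak tail current of the secondary pulse compared with the same well before compound.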

The assay deals with human ether-à-go-go-related gene (hERG) potassium channel (human, UniProt Q12809). Put plainly: primary screen, population patch clamp on CHO cells stably expressing hERG.
Chain of human ether-à-go-go-related gene (hERG) potassium channel (Q12809 whole entry, looked up): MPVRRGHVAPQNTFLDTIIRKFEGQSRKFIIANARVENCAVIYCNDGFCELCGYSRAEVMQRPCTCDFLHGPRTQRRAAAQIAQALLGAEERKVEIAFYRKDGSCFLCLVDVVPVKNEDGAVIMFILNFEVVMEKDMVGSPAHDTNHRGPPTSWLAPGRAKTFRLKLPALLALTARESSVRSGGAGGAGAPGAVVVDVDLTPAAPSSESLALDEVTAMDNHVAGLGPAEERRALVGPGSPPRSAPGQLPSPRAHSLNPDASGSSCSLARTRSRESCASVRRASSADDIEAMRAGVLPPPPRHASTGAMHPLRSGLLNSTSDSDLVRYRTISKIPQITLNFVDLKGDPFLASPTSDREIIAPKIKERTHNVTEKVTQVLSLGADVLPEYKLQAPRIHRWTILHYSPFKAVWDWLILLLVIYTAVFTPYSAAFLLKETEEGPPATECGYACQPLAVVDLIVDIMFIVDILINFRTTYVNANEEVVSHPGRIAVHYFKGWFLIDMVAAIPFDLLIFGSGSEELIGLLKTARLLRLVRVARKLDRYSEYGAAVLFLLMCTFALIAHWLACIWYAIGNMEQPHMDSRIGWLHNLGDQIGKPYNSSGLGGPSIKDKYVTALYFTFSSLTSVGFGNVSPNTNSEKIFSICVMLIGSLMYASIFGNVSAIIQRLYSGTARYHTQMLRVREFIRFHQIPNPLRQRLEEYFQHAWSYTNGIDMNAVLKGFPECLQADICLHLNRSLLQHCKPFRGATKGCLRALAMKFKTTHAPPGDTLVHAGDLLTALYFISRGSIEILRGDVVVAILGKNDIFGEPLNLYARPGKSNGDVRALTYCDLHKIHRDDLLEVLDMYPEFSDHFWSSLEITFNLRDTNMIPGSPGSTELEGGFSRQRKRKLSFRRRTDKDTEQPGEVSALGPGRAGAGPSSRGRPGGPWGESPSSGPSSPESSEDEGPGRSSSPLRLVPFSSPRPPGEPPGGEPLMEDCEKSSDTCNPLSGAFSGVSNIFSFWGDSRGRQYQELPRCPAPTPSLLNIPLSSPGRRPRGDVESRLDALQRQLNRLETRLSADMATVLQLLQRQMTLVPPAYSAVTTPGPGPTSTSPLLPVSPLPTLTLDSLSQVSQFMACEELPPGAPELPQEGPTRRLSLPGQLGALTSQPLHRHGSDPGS
As to `N#Cc1c(Nc2ccccc2)sc(C(=O)c2ccc(F)cc2)c1N`, the “hERG current change (%, negative = inhibition) at 10uM” value is reported as -2.12%.
Then `O=C(Cn1ncc(N2CCOCC2)c(Cl)c1=O)c1ccc(Cl)cc1`, with -32.8%; and `COc1ccccc1NC(=O)Cn1nc(-c2ccc3c(c2)OCCO3)ccc1=O`, with 0.512%.
In the case of `C=CCn1c(=N)n(CC(O)COc2ccccc2OC)c2ccccc21.Cl` (stereo not shown) it was -67%.
Turning to `Cc1cc(OCCN2CCOCC2)ccc1[N+](=O)[O-].O=C(O)C(=O)O`, the “hERG current change (%, negative = inhibition) at 10uM” value stood at 5.11%.
In the case of `O=C(CCCSc1ccccc1)Nc1ccc(Cl)c(S(=O)(=O)N2CCOCC2)c1` it was -5.89%; in that of `CC(C)(C)OC(=O)N[C@@H](COCc1ccccc1)C(=O)N[C@@H](CO)[C@H](O)[C@@H]1C[C@@H]1C(=O)NC1CCCCC1`, 11.4%; in that of `O=C(NC(Cc1ccc(O)cc1)C(=O)O)c1ccco1` (stereo not shown), 27.4%.
In the case of `Cc1ccc(S(=O)(=O)N2CCN(C)CC2)cc1[N+](=O)[O-]` it was -2.05%; in that of `O=C(CCCc1ccccc1)Nc1ccnn1C1CCN(Cc2ccccn2)CC1`, -15.2%; in that of `Cc1ccccc1NC(=O)Nc1ccc(C(F)(F)F)cc1`, 16.3%.
`CCCc1n[nH]c(=O)[nH]1`: the “hERG current change (%, negative = inhibition) at 10uM” value came to 8.06%.
Consider `COc1cc(NC(=O)C2CC3CCC2C3)c(OC)cc1Cl` (stereo not shown), for which the “hERG current change (%, negative = inhibition) at 10uM” value is on record as 5.77%.
Consider `NCC(O)COc1ccc2c(c1)OCO2` (stereo not shown), for which the “hERG current change (%, negative = inhibition) at 10uM” value was 4.96%.
In the case of `CC(C)CN(C(=O)CN1CCc2ccccc21)c1c(N)n(CC(C)C)c(=O)[nH]c1=O`, the “hERG current change (%, negative = inhibition) at 10uM” value amounted to 16%.
In the case of `CN1CCN(S(=O)(=O)c2cccc(C(=O)Nc3cccc(S(N)(=O)=O)c3)c2)CC1` it was 12.8%; in that of `CC1([N+](=O)[O-])COC2(OC1)C(=O)Nc1ccccc12` (stereo not shown), 14.7%; in that of `CC1=CCC(C(=O)O)C(C(=O)Nc2cccnc2)C1` (stereo not shown), 0.464%.
For the compound `O=C(Cn1cnc([N+](=O)[O-])n1)NCCO`, the “hERG current change (%, negative = inhibition) at 10uM” value amounted to 16.2%.
As to `COc1ccc(C2=NOC(C)(c3nnc(-c4ccncc4)o3)C2)cc1` (stereo not shown), the “hERG current change (%, negative = inhibition) at 10uM” value was found to be 1.73%.
Then `O=C(OCc1c(F)cccc1Cl)c1cnc(Cl)c(Cl)c1`, with 11.3%.
In the case of `Cc1nc2cc(-c3ccccc3)[nH]n2c(=O)c1C` it was 9.88%.
Then `COCCCn1c2nc3ccccc3nc2c2c(=O)n(Cc3cccs3)cnc21`, with 2.83%.
As to `NC(=O)c1c(NC(=O)CSc2nnc(-c3ccccc3)n2CC2CCCO2)sc2c1CCC2` (stereo not shown), the “hERG current change (%, negative = inhibition) at 10uM” value is reported as -21.9%.
`CC(=O)C(Cc1ccccc1)(Cc1ccccc1)C(C)=O`: the “hERG current change (%, negative = inhibition) at 10uM” value came to 5.19%.
In the case of `O=C(Cc1ccccc1)OCC(=O)N1CCN(S(=O)(=O)c2ccc(Cl)cc2)CC1` it was -18.5%; in that of `COc1ccc(/C=C/C(=O)OCC(=O)Nc2ccc(Cl)cn2)cc1`, 11%.
Regarding `Br.CC(C)(C)c1cc(C2=CSC3=NCCN23)cc(C(C)(C)C)c1O`, the “hERG current change (%, negative = inhibition) at 10uM” value is -76.2%.
As to `O=C(CNC(=O)c1cccs1)NCCc1ccco1`, the “hERG current change (%, negative = inhibition) at 10uM” value is recorded as 3.77%.
`Cc1cnc(C(=O)OCC(=O)NCc2ccc3c(c2)OCO3)cn1`: the “hERG current change (%, negative = inhibition) at 10uM” value is recorded as 8.44%.
As for `COc1ccc(CCN2C(=O)C(Oc3ccccc3C)C2c2ccc3c(c2)OCO3)cc1` (stereo not shown), the “hERG current change (%, negative = inhibition) at 10uM” value is given as -42.3%.
Then `C=CCOc1ccc(CC2C(=O)N(C)C(=O)N(C)C2=O)cc1`, with 10.1%.
As for `COc1ccc(C2CN(C)CC2C(=O)c2ccc(C)cc2)cc1Cl` (stereo not shown), the “hERG current change (%, negative = inhibition) at 10uM” value is recorded as -63%.
Take `CCOCCCNC(=O)C1CCN(S(=O)(=O)N(CC(C)C)CC(C)C)CC1`: the “hERG current change (%, negative = inhibition) at 10uM” value came to 1.6%.
For `Cc1ccc(CNC(=O)c2ccc(CS(=O)(=O)c3ccccc3)o2)cc1`, the “hERG current change (%, negative = inhibition) at 10uM” value is reported as -8.29%.
Consider `CCc1cccc(C)c1NC(=S)N1CCCC1C(=O)O` (stereo not shown), for which the “hERG current change (%, negative = inhibition) at 10uM” value is 16.6%.
In the case of `CCOC(=O)C1CCN(C(=O)c2cc(S(=O)(=O)N3CCc4ccccc43)ccc2OC)CC1` it was -60.3%.
Then `COc1ccc(S(=O)(=O)n2ccc(-c3cnc(-c4ccccc4)s3)n2)cc1`, with 9.73%; and `O=C(NCC1CCCO1)C(=O)N/N=C\c1ccc2c(c1)OCO2` (stereo not shown), with 2.44%; and `CCOC(=O)Cn1nc(C)c(NC(=O)c2cccc([N+](=O)[O-])c2)c1C`, with -11%.
In the case of `COc1ccc(CC(=O)NNC(=O)CSc2nnc(C)n2-c2ccccc2)cc1` it was -6.68%; in that of `CNC(=O)c1ccsc1NC(=O)c1ccc(S(=O)(=O)N2CCCc3ccccc32)cc1`, 10.5%.
Regarding `O=C(NC1CC1)c1cc2ccccc2o1`, the “hERG current change (%, negative = inhibition) at 10uM” value is given as 8.73%.
